Test results as given in PubChem BioAssay AID1159614 (National Center for Advancing Translational Sciences (NCATS), 2016).
Screen size: about 45,000 compounds; about 65 (0.1%) were called active. Calls follow the shape of the dose curve; as a rule, active = well fitted activation curve with a large enough effect; inconclusive = small, poorly fitted or top-dose-only effect; inactive = no such curve, though single readings can be large or run the other way. The list shows a part of the results.

target: Galactocerebrosidase (Homo sapiens) (UniProt P54803); assay: A Novel Cell-Based Assay to Identify Small Molecules for B -Galactocerebrosidase; conditions: 145M-Twi-hGALC-G270D cells (Twitcher mouse brain line with human GALC G270D), HMU-beta-Gal fluorescence, 48 h; series mostly up to 57.5 µM; activation: at the top concentration; also: 0% is about no effect; nearly all actives have a fitted effect of over 65% in size
Chain of UniProt P54803 (P54803 whole entry, looked up): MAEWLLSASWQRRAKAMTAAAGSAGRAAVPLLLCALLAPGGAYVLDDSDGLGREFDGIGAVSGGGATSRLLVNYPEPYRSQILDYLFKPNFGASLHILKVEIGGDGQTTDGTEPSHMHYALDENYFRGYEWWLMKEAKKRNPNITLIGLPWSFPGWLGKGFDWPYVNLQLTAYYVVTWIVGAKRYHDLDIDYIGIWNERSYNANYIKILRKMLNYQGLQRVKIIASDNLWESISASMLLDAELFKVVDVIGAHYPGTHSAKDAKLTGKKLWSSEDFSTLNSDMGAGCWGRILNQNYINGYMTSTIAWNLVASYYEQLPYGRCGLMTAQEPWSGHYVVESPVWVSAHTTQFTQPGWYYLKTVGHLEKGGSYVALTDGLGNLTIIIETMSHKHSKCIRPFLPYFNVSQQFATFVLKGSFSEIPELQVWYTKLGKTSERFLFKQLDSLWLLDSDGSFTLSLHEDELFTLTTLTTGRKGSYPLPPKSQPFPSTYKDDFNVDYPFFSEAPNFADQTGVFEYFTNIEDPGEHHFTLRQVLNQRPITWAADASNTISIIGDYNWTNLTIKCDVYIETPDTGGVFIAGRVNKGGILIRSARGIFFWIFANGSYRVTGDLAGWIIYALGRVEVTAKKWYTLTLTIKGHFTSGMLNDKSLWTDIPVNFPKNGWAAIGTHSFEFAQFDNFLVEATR
Method in brief: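 Fluorescence readout: HMU-β-gal cleavage by mutant GALC (0.1 mM final, citrate/phosphate pH 5.2 with 1 mg/mL taurocholate), stopped with carbonate/bicarbonate plus Triton X-100. Cells: murine Twitcher 145M-Twi expressing human G270D GALC; qHTS for activators.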

| SMILES | activation |
| --- | --- |
| Cc1ccc(NC(=O)CSc2nnc(NC(=O)NC3CCCCC3)s2)cc1 | inactive: -17.4% |
| COc1ccc(-c2nc3c4ccccc4n(CC(=O)N4CCN(c5ccccc5F)CC4)c(=O)n3n2)cc1 | inactive: -3.19% |
| COc1cc(C)ccc1OCCSc1nc2ccc(NC(=O)c3ccccc3F)cc2s1 | inactive: -10.9% |
| O=C(Cn1c(=O)n(CC2CCCO2)c(=O)c2ccccc21)Nc1ccc(F)cc1F (centres undefined) | inactive: -3.55% |
| COC(=O)c1cc(NC(=O)Cn2nc(-c3ccccc3)c3c(c2=O)CCCC3)cc(C(=O)OC)c1 | inactive: 1.44% |
| N#C/C(=C/c1ccccc1Cl)c1nc(-c2cc3ccccc3oc2=O)cs1 | inactive: -5.99% |
| CCc1ccc(-c2cc(C)no2)cc1S(=O)(=O)NCc1ccc(OC)cc1 | inactive: -8.35% |
| Fc1ccc(NCc2ccccc2-c2nnc(-c3ccccc3Cl)o2)cc1Cl | inactive: -17.6% |
| CCOc1ccc(-n2c(=O)c3c(C)c(C)sc3n(Cc3ccc(C(C)(C)C)cc3)c2=O)cc1 | inactive: 26.5% |
| CCN(CC)C(=O)Cn1c(=O)n(CCCCCC(=O)NCc2ccc(C)cc2)c(=O)c2sccc21 | inactive: -8.62% |
| Cc1sc2ncn(CC(=O)N3CCN(c4cccc(Cl)c4)CC3)c(=O)c2c1S(=O)(=O)N1CCC(C)CC1 | inactive: -12.7% |
| Cc1cccc2cc(-c3nc(-c4cccs4)no3)c(=O)oc12 | inactive: -7.09% |
| CCOc1ccc(C(c2c(O)cc(C)n(CCOC)c2=O)N2CCN(c3ccc(F)cc3)CC2)cc1 (centres undefined) | inactive: -2.45% |
| COc1cccc(C(=O)N2CCc3cc(OC)c(OC)cc3C2COc2ccc3c(C)cc(=O)oc3c2)c1 (centres undefined) | inactive: 8.19% |
| CCn1cc(S(=O)(=O)c2cc(C)cc(C)c2)c(=O)c2cc(F)c(N3CCN(c4ccccc4)CC3)cc21 | inactive: -4.22% |
| CCCCCN=C(N)N/N=C/c1c[nH]c2ccc(OC)cc12 | inactive: -16.4% |
| CCCCNC(=O)Cn1nc(N2CCN(c3ccccc3OC)CC2)ccc1=O | inactive: 2.59% |
| COc1ccc(Cl)cc1NC(=O)COc1cccc2c(=O)n(C)ccc12 | inactive: -8.43% |
| COC(=O)c1ccc(NC(=O)CN(C)S(=O)(=O)c2ccc3c(c2)CCCC(=O)N3)cc1 | inactive: -0.472% |
| COCCn1c(C)cc(O)c(C(c2ccccc2Cl)N2CCN(c3ccccc3)CC2)c1=O (centres undefined) | inactive: -10.2% |
| CCCCN(C(=O)CCn1c(=O)oc2ccccc21)c1ccccc1 | inactive: -15.8% |
| COc1ccc(OCC(=O)N2CCN(C(=O)c3cccc(OC)c3OC)CC2)cc1 | inactive: 1.02% |
| CCOc1ccc(-c2cc(CCCC(=O)NCCc3ccc(SC)cc3)no2)cc1 | inactive: -13.2% |
| Cc1ccc2[nH]c(C)c(CCNC(=O)c3cc4cc(Br)ccc4oc3=O)c2c1 | inactive: 2.84% |

| SMILES | activation |
| --- | --- |
| Cc1cccc(NC(=O)Cn2c(=O)n(CC3CCC(C(=O)NCCc4ccccc4)CC3)c(=O)c3ccccc32)c1C (centres undefined) | inactive: -14.2% |
| O=C(NCC(c1cccnc1)N1CCc2ccccc21)c1cccc(F)c1 (centres undefined) | inactive: -9.99% |
| CCOC(=O)c1ccc(NC(=O)c2c(NCc3ccc(OC)c(OC)c3OC)sc3c2CCC(C)C3)cc1 (centres undefined) | inactive: -9.52% |
| CCN(CC)C(=O)c1sc2c(c1C)c(=O)n(Cc1ccccc1)c(=O)n2Cc1c(C)cc(C)cc1C | inactive: -7.37% |
| O=C(NCC(c1ccco1)S(=O)(=O)c1cccs1)c1c(F)cccc1F (centres undefined) | inactive: -22.6% |
| CCOc1ccccc1CNC(=O)CCCn1c(=O)c2cccn2c2ccc(F)cc21 | inactive: 2.3% |
| CCOC(=O)c1cc(S(=O)(=O)N(C)c2ccccc2)[nH]n1 | inactive: 4.91% |
| Cc1ccc(CNC(=O)c2cc(NS(=O)(=O)c3ccc(C)cc3)ccn2)cc1 | inactive: -10.9% |
| CCOc1ccc(S(=O)(=O)Nc2ccc3c(c2)CCCN3S(=O)(=O)c2ccc(C)cc2)cc1 | inactive: 14.8% |
| Cc1ccc2nc(N)[nH]c(=O)c2c1Sc1ccncc1 | inactive: -6.63% |
| Cc1ccc(NS(=O)(=O)c2ccc3[nH]c4c(c3c2)CCCCCC4)cc1C | inactive: -49% |
| COc1ccc(CCNCc2c(C(=O)O)c(C)n(Cc3cccc(C)c3)c2C)cc1OC | inactive: -12.3% |
| CCCOc1ccc(C(=O)Nc2ccc(NC(=O)c3ccc(Br)cc3)cc2)cc1 | inactive: -9.59% |
| Cc1cccc(Nc2nnc(-c3ccc(C)c(S(=O)(=O)N4CCOCC4)c3)c3ccccc23)c1 | inactive: -15.4% |
| Cn1c(Oc2cccc(Cl)c2)nc2c1c(=O)n(Cc1ccccc1Cl)c(=O)n2C | inactive: -8.17% |
| Cn1c(C(=O)NCc2ccccc2F)cc2cc(S(=O)(=O)N3CCCCC3)ccc21 | inactive: -6.16% |
| COc1ccc(NC(=O)CN(C)S(=O)(=O)c2ccc3nc(C)sc3c2)cc1Cl | inactive: 0.512% |
| COC(=O)c1sc2cccc(F)c2c1S(=O)(=O)NCc1ccccc1Cl | inactive: -8.72% |
| COc1ccc(CNC(=O)C(=O)Nc2ccccc2OC)cc1 | inactive: -6.84% |
| COC(=O)c1sc(S(=O)(=O)N2CCN(c3ccc(OC)cc3)CC2)c(C(=O)OC)c1C | inactive: -11.7% |
| CCOC(=O)[C@@](C)(N)Cc1ccc(O)c(O)c1 | inactive: 2.86% |
| Cc1cc(O)c(C(c2ccccc2)N2CCN(c3ccccc3F)CC2)c(=O)n1Cc1ccco1 (centres undefined) | inactive: -21.2% |
| CCC(=O)N1CCc2cc(Br)cc(S(=O)(=O)CCC(=O)NCc3ccc(C)cc3)c21 | inactive: -24.1% |
| CC(=O)Nc1c(C)nn(-c2ccccc2)c1N1CCC(C(=O)Nc2ccc(Cl)cc2C)CC1 | inactive: -19.7% |

| SMILES | activation |
| --- | --- |
| COc1cc(NC(=O)CN2C(=O)C(c3ccc(C)cc3)=NC23CCCCCC3)cc(OC)c1 | inactive: -14.5% |
| O=C(c1ccccc1)c1ccc2n1CCC2C(=O)O (centres undefined) | inactive: -5.36% |
| Cc1ccc(-c2nc3ccccc3[nH]2)cc1NC(=O)COc1ccc(Cl)cc1Cl | inactive: -21.9% |
| COc1ccc(OC)c(NC(=O)CSc2nccn2-c2cc(C)cc(C)c2)c1 | inactive: -35.4% |
| Cc1ccc(Cn2c3ccccc3c3cnn(CC(=O)N4CCCCCC4)c(=O)c32)cc1 | inactive: -9.22% |
| COc1ccc(-n2nc3c(c2NC(=O)C(=O)NCc2ccccc2)CSC3)cc1 | inactive: -4.22% |
| Cc1ccc(CN2C(=O)CC(c3ccc(Cl)cc3)c3c(C)nn(-c4nc(C)cc(C)n4)c32)cc1 (centres undefined) | inactive: -15.4% |
| COc1c(N2CCNC(C)C2)c(F)cc2c(=O)c(C(=O)O)cn(C3CC3)c12 (centres undefined) | inactive: -16.7% |
| COc1ccc(N2CCN(C(=O)CCc3nnc4n(C)c(=O)c5sccc5n34)CC2)cc1 | inactive: -7.67% |
| CC1(C)N=C(c2ccc(F)cc2)C(=O)N1CC(=O)Nc1ccccc1Cl | inactive: -10.5% |
| COc1ccc(-n2c(=O)c3ccc(C(=O)NCc4ccc(C)cc4)cc3n(Cc3ccc(F)cc3Cl)c2=O)cc1 | inactive: -16% |
| CCCC(=O)Nc1nc2c(s1)CC(C(C)(C)C)CC2 (centres undefined) | inactive: 9.06% |
| CCOc1ccc(-n2c(=O)c3c(C)c(C)sc3n(Cc3c(F)cccc3Cl)c2=O)cc1 | inactive: 2.88% |
| COC(=O)c1cc2oc(C)cc2n1CC(=O)Nc1ccc(OC)c(OC)c1 | inactive: -16% |
| COC(=O)c1ccc(NC(=O)CSc2nccn2Cc2ccc(Cl)cc2)cc1 | inactive: -4.17% |
| COc1cccc(CNC(=O)CCCn2c(=O)c3cccn3c3ccc(F)cc32)c1OC | inactive: -6.01% |
| Cn1c(=O)cc(SCC(=O)NCCc2ccc(Cl)cc2)c2cc(Cl)ccc21 | inactive: -3.5% |
| Cc1cc(C)cc(NC(=O)Cn2c(=O)n(CCC(C)C)c(=O)c3cccnc32)c1 | inactive: -11.6% |
| CCc1ccc2oc(C(=O)N(Cc3cccc(Cl)c3)Cc3ccco3)c(C)c2c1 | inactive: -11.5% |
| COc1ccc(N2C(=O)CS(=O)(=O)C23C(=O)N(Cc2ccccc2)c2ccccc23)cc1 (centres undefined) | inactive: -20.3% |
| COc1cccc(-c2nc(S(=O)(=O)c3ccc(C)cc3)c(NCc3ccccc3)o2)c1 | inactive: -8.7% |
| Clc1cccc(N2CCN(c3nc4ccccc4c4nc(-c5ccccc5)nn34)CC2)c1 | inactive: -19% |
| CCN1CCN(c2cc(C)c3cc(NC(=O)c4cc(OC)c(OC)c(OC)c4)ccc3n2)CC1 | inactive: 6.82% |
| COc1ccc(-c2cc(C(C)=O)c(C)n2CCC(=O)Nc2cccc(C)c2C)cc1 | inactive: -6.58% |

| SMILES | activation |
| --- | --- |
| O=C(CSc1nc2ccccc2c2nc(-c3ccccc3)nn12)Nc1ccc(F)cc1 | inactive: 5.94% |
| O=C(Cn1c2ncccc2c(=O)n1-c1ccccc1)Nc1cccc(C(F)(F)F)c1 | inactive: -11.9% |
| CCC(=O)C1=C(c2cccc([N+](=O)[O-])c2)N(C(=O)CC)n2c(nnc2C2CCCCC2)S1 | inactive: -1.89% |
| COc1cc(NC(=O)CN(C)S(=O)(=O)c2ccc3c(c2)CCCC(=O)N3)cc(OC)c1OC | inactive: -28.7% |
| CCc1ccc2c(c1)c(=O)c(S(=O)(=O)c1ccccc1)cn2CC(=O)Nc1cc(C)ccc1C | inactive: -7.41% |
| Cc1ccccc1-c1nc(CS(=O)(=O)CC(=O)Nc2c(C)cccc2C)c(C)o1 | inactive: 18.8% |
| Cc1ccc(CCNC(=O)Cn2ncc3c(=O)oc4ccccc4c32)cc1 | inactive: 0.825% |
| COc1ccc(-c2nc3ccccc3o2)cc1NC(=O)COc1c(C)cc(Cl)cc1Cl | inactive: -17% |
| OCc1ccccc1O | inactive: -26.2% |
| CCOc1ccccc1N(C)C(=O)c1cc(S(=O)(=O)NCc2ccc(C)cc2)ccc1F | inactive: -3.47% |
| CN1CCN(C(=O)c2cnn(-c3ccccc3)c2C2CCN(C(=O)OC(C)(C)C)CC2)CC1 | inactive: 0.826% |
| CCc1cccc(NC(=O)Cn2c(=O)n(Cc3ccccc3)c(=O)c3c(C)c(C(=O)N(C)C)sc32)c1 | inactive: -9.07% |
| CCc1nnc(SC(CC)C(=O)NCCOC)c2cc3occc3n12 (centres undefined) | inactive: -13.8% |
| CCc1nn2c(=O)cc(COC(=O)c3cccc(NC(=O)COc4ccccc4F)c3)nc2s1 | inactive: -7.64% |
| COc1ccc(Cl)cc1NC(=O)c1cc(=O)c2cc(C)cc(C)c2o1 | inactive: -17.3% |
| Cc1ccc(C)c(NC(=O)Cn2cc(S(=O)(=O)N3CCCC3)c(S(=O)(=O)N3CCCC3)c2)c1 | inactive: -16.8% |
| Cc1cccc(NC(=O)CSc2nc(C)cc(C)c2C(=O)Nc2ccc(Cl)cc2)c1 | inactive: -8.15% |
| CCOC(=O)C1CCN(c2csc3ccc(C)cc3c2=O)CC1 | inactive: -9.93% |
| COC(=O)c1cc2sc(C)cc2n1Cc1nc(-c2cccc(Br)c2)oc1C | inactive: -11.1% |
| CC(C)(C)OC(=O)N1CCC(c2c(C(=O)N3CCN(c4ccccc4F)CC3)cnn2C(C)(C)C)CC1 | inactive: -18.2% |
| Cc1cccc(-c2nc3c4ccccc4n(CC(=O)Nc4cccc(F)c4)c(=O)n3n2)c1 | inactive: -12.2% |
| COc1ccc(NC(=O)c2cc(C(C)=O)n3ccccc23)cc1Cl | inactive: -21.3% |
